Data from PubChem BioAssay AID1508623 (National Center for Advancing Translational Sciences (NCATS), 2021).
Out of some 48,000 compounds screened, about 450 (0.94%) were called active. Roughly 19% stayed inconclusive and do not appear here. Calls follow the shape of the dose curve; as a rule, active = well fitted inhibition curve with a large enough effect; inconclusive = small, poorly fitted or top-dose-only effect; inactive = no such curve, though single readings can be large or run the other way. The list shows a part of the results.

Test: Primary qHTS for Identification of Small Molecule Inhibitors of Huntingtin Promoter Activity; also: nearly all actives have a fitted effect of over 50% in size
Details: HEK293 HTT promoter firefly luciferase reporter (activity 0% = vehicle and -100% = no light), 24 h; series mostly up to 57.5 µM; activity change, negative = inhibition: at the top concentration
In short: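 Firefly luciferase signal from promoter-reporter HEK293 cells was scaled between vehicle (0%) and zero RLU (-100%). Compounds were tested at final concentrations of up to 57.5 uM over 24 h at 37 degrees C. PTC124 at 50 uM final served as control inhibitor.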

Activity change, negative = inhibition, inactive:
CC1CCN(C(=O)Cn2cc(SCC(=O)NCc3ccccc3)c3ccccc32)CC1 -24.9%, CCOc1ccc(C(c2c(O)cc(C)n(Cc3ccco3)c2=O)N2CCN(C)CC2)cc1 (configuration not stated) -7.05%, CCCCNc1ccc(C(=O)OCCOCCOCCOCCOCCOCCOCCOCCOCCOC)cc1 -31.2%, CCc1nnc(NC(=O)c2nc(SCc3cccc(C)c3)ncc2Cl)s1 -17%, O=S(=O)(c1ccccc1)n1nc(-c2ccco2)nc1NCc1ccccc1 37.3%, CCC(Sc1nnc(-c2ccc(F)cc2)c(-c2ccc(F)cc2)n1)C(=O)NC1CCCC1 (configuration not stated) -9.98%, CC(Nc1oc(-c2ccc(COc3ccccc3)o2)nc1C#N)c1ccccc1 (configuration not stated) -7.78%, COc1cccc(N2CC(NC(=O)/C=C\c3ccccc3)CC2=O)c1 (configuration not stated) -10.9%, CCC(=O)N1CCc2cc(S(=O)(=O)CCC(=O)Nc3cc(Cl)ccc3OC)ccc21 0.647%, COc1ccc(CNC(=O)C2CCN(S(=O)(=O)c3cccc(-c4noc(C)n4)c3)CC2)cc1 -16.4%, Cc1cccc(Cn2c(CN3CCC(C(=O)NC(C)C)CC3)cc3ccccc32)c1 1.6%, CCOc1ccc(CNC(=O)c2cc3c(=O)oc4ccc(C)cc4c3s2)cc1 -10.6%, Cc1ccccc1CNCCCSc1nnnn1C -7.83%, Cc1ccc(NC(=O)CSCc2cc(=O)c3ccccc3[nH]2)c(C)c1 -26.9%, COc1ccc(Cn2c(CO)cnc2SCc2ccccc2)cc1 -2.71%, O=C(COCc1cc(-c2ccc(F)cc2)on1)Nc1cccc(C(F)(F)F)c1 -1.64%, COc1ccc(-c2cn3c(n2)sc2cc(C(=O)NCCCN4CCN(C)CC4)ccc23)cc1 -23.8%, Cc1ccc(-n2c(=O)c3c(C)c(C(=O)N(C)C)sc3n(Cc3ccccc3C)c2=O)cc1C 10.3%, Cc1cccc(Nc2nc(-c3ccccc3)nc3ccccc23)c1 -22.7%, CCCCN(CC)C(=O)CSc1nc2c(sc3ccccc32)c(=O)n1CCc1ccccc1 -6.93%, CCc1ccccc1NC(=O)Cn1c(=O)n(-c2ccc(C)cc2)c(=O)c2cc(OC)c(OC)cc21 -1.01%, O=C(O)/C=C/c1ccc(Cn2ccnc2)cc1 -8.34%, O=C(NO)c1ccccc1 -17.6% [at 116 µM], CC(=O)N1CCc2c(sc3c2c(=O)n(-c2ccccc2C)c(=O)n3CC(=O)Nc2ccccc2)C1 4.59%, Cn1c(=O)sc2cc(NS(=O)(=O)c3ccc(C(C)(C)C)cc3)ccc21 12.2%, Cc1c(C(=O)Nc2c(F)cccc2F)sc2ncn(Cc3ccccc3F)c(=O)c12 -28.3%, COc1ccc(C(=O)NCc2cn3ccc(C)cc3n2)cc1 -16.9%, CC(C)CC(=O)NC1CC(=O)N(c2ccc3c(c2)OCCO3)C1 (configuration not stated) -12%, COc1cc2nccc(Oc3ccc(NC(=O)C4(C(=O)Nc5ccc(F)cc5)CC4)cc3)c2cc1OC -20.6%, CN(Cc1ccccc1)c1nc2c(S(=O)(=O)c3cccc(Cl)c3)nnn2c2ccsc12 -11.1%, CCCCNC(=O)CSc1nc2cc3c(cc2c(=O)n1CCCC(=O)NCc1ccc(OC)cc1)OCO3 -16.4%, COC(=O)c1ccccc1NC(=O)NCc1ccc2c(c1)CCN2C(=O)c1ccccc1 -10.1%, Cc1ccc2c(c1)N(C(=O)N1CCC(C(=O)Nc3cccc(F)c3)CC1)CCO2 -27.3%, COc1cc(Nc2nc3c(S(=O)(=O)c4ccccc4)nnn3c3ccc(Cl)cc23)cc(OC)c1 2.21%, O=c1c2oc3ccccc3c2n(Cc2ccccc2Cl)c(=O)n1Cc1ccc2c(c1)OCO2 -11.3%, Cc1ccc2c(c1)N(C(=O)CCC(=O)NCc1ccccc1F)CC(C)O2 (configuration not stated) -21.1%, CCOC(=O)c1ccc2c(c1)N(Cc1cc(C)ccc1C)C(=O)c1ccccc1S2(=O)=O -11%, Cc1cc(C)cc(NC(=O)[C@H]2O[C@@H]3OC(C)(C)O[C@@H]3[C@H]3OC(C)(C)O[C@H]32)c1 5.24%, Cc1ccccc1C(=O)N1CCC(c2nc(-c3ccc(S(=O)(=O)N4CCCC4)cc3)no2)CC1 -13.5%, Clc1cccc(Nc2ncnc3c2nc2n3CCCCC2)c1 6.12%, Cc1ccsc1CN(Cc1ccco1)c1cnc(S(C)(=O)=O)nc1C(=O)Nc1ccc(Cl)cc1 -25.9%, Cn1c(=O)oc2cc(S(=O)(=O)CCC(=O)NCc3ccc(Cl)cc3)ccc21 -9.85%, CC1CCN(C(=O)CN2CC(C)Sc3ccccc32)CC1 (configuration not stated) -11.6%, CCOCCn1ccc2c(OCC(=O)Nc3cc(C)cc(C)c3)cccc2c1=O -13.3%, COc1ccc(-c2cn3nc(SCC(=O)Nc4cccc(C)c4C)ccc3n2)cc1 -19.9%, Cc1cccc(C(=O)Nc2ccc(OCc3cc(=O)n4ccc(C)cc4n3)cc2)c1 -10.4%, COc1ccc(Nc2nc3ccccc3n3c(N)nnc23)cc1 28.9%, CCCCN(C)C(=O)CCC(=O)NNc1nc2ccccc2c2nc(C)nn12 -7.04%, COc1cc2c(cc1OC)C(COc1cc(C)cc(C)c1)N(C(=O)C(C)(C)C)CC2 (configuration not stated) -17.2%, CCC(Nc1ccc(-c2nc(-c3ccccn3)no2)cc1[N+](=O)[O-])c1ccccc1 (configuration not stated) 38%, COc1cc2c(C(=O)N(C)c3cccc(C(F)(F)F)c3)cn(CC(C)C)c(=O)c2cc1OC -10%, Cc1cccc(N2CCn3c2nc2c3c(=O)n(CCCc3ccccc3)c(=O)n2C)c1 -4.16%, Cc1ccc(C(c2sc3nc(-c4ccco4)nn3c2O)N2CCN(c3ccc(F)cc3)CC2)cc1 (configuration not stated) 16%, O=C(CCCCCn1c(=O)c2sccc2n(CC(=O)Nc2ccccc2F)c1=O)NCc1ccc2c(c1)OCO2 -9.48%, CCC(C)OC(=O)/C(C#N)=C/c1ccc(-c2ccc(Br)cc2)o1 (configuration not stated) 1.25%, COc1cc(CN(C(=O)COc2ccccc2)c2ccccn2)cc(OC)c1OC -18.1%, Cc1ccc(C2CC(=O)Nc3c2c(C)nn3-c2nc(C)cc(C)n2)c(C)c1 (configuration not stated) 4.01%, Cc1cc2n(n1)CCCN2C(=O)Nc1ccccc1C(F)(F)F 4.63%, CCC1=C(C)CN(C(=O)NCCc2ccc(S(=O)(=O)NC(=O)NC3CCC(C)CC3)cc2)C1=O (configuration not stated), O=C(Nc1ccccc1C(=O)N1CCCCC1)c1nsc2ccccc12 -3.8%, CCCCOc1cccc(C2c3c(-c4cc(C)ccc4O)n[nH]c3C(=O)N2CCOC)c1 (configuration not stated) -27.8%, CCCCCOc1ccc(/C=C/C(=O)Nc2sc3c(c2C(=O)OCC)CCC3)cc1OC 1.1%
